Measured values as given in the supplement of paper PMC8728848.
The other results are listed elsewhere or left out.

Columns and labels:
Experiment in all cases: glycan array binding signal (z-score within array); higher = stronger binding
Details in all cases: glycan notation: IUPAC condensed, linker removed
[1] = molecular target: Gal(b1-4)GlcNAc(b1-6)GalNAc
Procedure, shortened: (§1)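 Negative Z-scores can be read as non-binding. The Z-score is calculated within each array and then averaged across arrays of one protein sequence at different concentrations or buffers and across linkers. Arrays, 3228 in all, were curated from the Consortium for Functional Glycomics database and kept only where the protein sequence was available.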

[2] = molecular target: Gal(b1-4)GlcNAc(b1-6)[Gal(b1-3)]GalNAc
Procedure, shortened: as §1

[3] = molecular target: Gal(b1-4)GlcNAc(b1-6)[Gal(b1-4)GlcNAc(b1-3)]GalNAc
Procedure, shortened: as §1

[4] = molecular target: Gal(b1-4)GlcNAc6P
Procedure, shortened: as §1

[5] = molecular target: Gal(b1-6)Gal
Procedure, shortened: as §1

[6] = molecular target: Gal3S(b1-3)GalNAc
Procedure, shortened: as §1

[7] = molecular target: Gal3S(b1-3)GlcNAc
Procedure, shortened: as §1

[8] = molecular target: Gal3S(b1-3)[Fuc(a1-4)]GlcNAc
Procedure, shortened: as §1

[9] = molecular target: Gal3S(b1-4)Glc
Procedure, shortened: as §1

[10] = molecular target: Gal3S(b1-4)Glc6S
Procedure, shortened: as §1

[11] = molecular target: Gal3S(b1-4)GlcNAc
Procedure, shortened: as §1

[12] = molecular target: Gal3S(b1-4)[Fuc(a1-3)]Glc6S
Procedure, shortened: as §1

[13] = molecular target: Gal3S(b1-4)[Fuc(a1-3)]GlcNAc
Procedure, shortened: as §1

[14] = molecular target: Gal3S(b1-4)[Fuc(a1-3)]GlcNAc6S
Procedure, shortened: as §1

[15] = molecular target: Gal3S4S(b1-4)GlcNAc
Procedure, shortened: as §1

[16] = molecular target: Gal3S6S(b1-4)GlcNAc
Procedure, shortened: as §1

[17] = molecular target: Gal3S6S(b1-4)GlcNAc6S
Procedure, shortened: as §1

[18] = molecular target: Gal4S(b1-4)GlcNAc
Procedure, shortened: as §1

[19] = molecular target: Gal4S6S(b1-4)GlcNAc
Procedure, shortened: as §1

[20] = molecular target: Gal6P(b1-4)GlcNAc
Procedure, shortened: as §1

[21] = molecular target: Gal6S(b1-3)GlcNAc
Procedure, shortened: as §1

[22] = molecular target: Gal6S(b1-3)GlcNAc6S
Procedure, shortened: as §1

[23] = molecular target: Gal6S(b1-4)Glc
Procedure, shortened: as §1

[24] = molecular target: Gal6S(b1-4)Glc6S
Procedure, shortened: as §1

[25] = molecular target: Gal6S(b1-4)GlcNAc
Procedure, shortened: as §1

[26] = molecular target: Gal6S(b1-4)GlcNAc6S
Procedure, shortened: as §1

[27] = molecular target: GalNAc(a1-3)Gal
Procedure, shortened: as §1

[28] = molecular target: GalNAc(a1-3)GalNAc
Procedure, shortened: as §1

[29] = molecular target: GalNAc(a1-3)GalNAc(b1-3)Gal(a1-4)Gal(b1-4)Glc
Procedure, shortened: as §1

[30] = molecular target: GalNAc(a1-3)GalNAc(b1-3)Gal(a1-4)Gal(b1-4)GlcNAc
Procedure, shortened: as §1

[31] = molecular target: GalNAc(b1-3)Gal
Procedure, shortened: as §1

[32] = molecular target: GalNAc(b1-3)Gal(a1-4)Gal(b1-4)GlcNAc
Procedure, shortened: as §1

[33] = molecular target: GalNAc(b1-3)Gal(a1-4)Gal(b1-4)GlcNAc(b1-3)Gal(b1-4)Glc
Procedure, shortened: as §1

[34] = molecular target: GalNAc(b1-3)Gal(a1-6)Gal(b1-4)Glc
Procedure, shortened: as §1

[35] = molecular target: GalNAc(b1-3)GalNAc
Procedure, shortened: as §1

[36] = molecular target: GalNAc(b1-3)GlcNAc
Procedure, shortened: as §1

[37] = molecular target: GalNAc(b1-4)Gal(b1-4)Glc
Procedure, shortened: as §1

[38] = molecular target: GalNAc(b1-4)GlcNAc
Procedure, shortened: as §1

B1: GS7807P-bth-537-23-537 (Bacteroides thetaiotaomicron) (protein)
chain: NYENINSNPYEAPDLSADGYALGSAMNNLAGCVVSPDVNTAQFTDCLLGGPLGGYFADSNAGFTETISNFNPKDDWSRVFLKSDKIIPTLYSNLTQVKLVSQNTNDPVPYAIAQVIKVAAMHRVTDAFGPIPYSQIGANGEIATPYDSQEVTYNTFFDELNAAIATLNENSNEQLVPTADYIYKGDVKKWIRFANSLKLRLAIRIAYANPVKAQQMAEEAVNPANGGVIESNADNATWNYFETSQNPIYVATRYNQVQTSDHGGVPCLTGGDTHAAADIICYMNGYKDNRREKFFTKSEWAGQDYVGMRRGIVIPELKTTGHKYSGVNIAPTSPLYWMNAAEVAFLRAEGQAVFNFSMGGTAESFYNQGIRLSFEQWGADGVEDYLKDDVNKPTAYTDPAGTNTYQNALSNITIKWNDSADKEEKQERIIVQKWIANWQLGNEAWADFRRTGYPKLIPVKENKSGGVVDSEKGARRMPYPLDEFVSNKANVEYAIANYLHGADNMATDVWWASKK
**Q.** B1 was tested. Which “glycan array binding signal (z-score)” value [1] did it give?
**A.** 1.13

**Q.** And the “glycan array binding signal (z-score)” value [2]?
**A.** 0.146

**Q.** And the “glycan array binding signal (z-score)” value [3]?
**A.** 0.118

**Q.** And the “glycan array binding signal (z-score)” value [4]?
**A.** -0.182

**Q.** And the “glycan array binding signal (z-score)” value [5]?
**A.** -0.262

**Q.** And the “glycan array binding signal (z-score)” value [6]?
**A.** -0.351

**Q.** What about the “glycan array binding signal (z-score)” value [7] of the same binder?
**A.** -0.379

**Q.** And the “glycan array binding signal (z-score)” value [8]?
**A.** -0.332

**Q.** What about the “glycan array binding signal (z-score)” value [9] of the same binder?
**A.** -0.348

**Q.** What about the “glycan array binding signal (z-score)” value [10] of the same binder?
**A.** -0.367

**Q.** And the “glycan array binding signal (z-score)” value [11]?
**A.** -0.294

**Q.** And the “glycan array binding signal (z-score)” value [12]?
**A.** 0.672

**Q.** And the “glycan array binding signal (z-score)” value [13]?
**A.** -0.324

**Q.** And the “glycan array binding signal (z-score)” value [14]?
**A.** -0.244

**Q.** What about the “glycan array binding signal (z-score)” value [15] of the same binder?
**A.** -0.363

**Q.** What about the “glycan array binding signal (z-score)” value [16] of the same binder?
**A.** 0.325

**Q.** And the “glycan array binding signal (z-score)” value [17]?
**A.** -0.311

**Q.** What about the “glycan array binding signal (z-score)” value [18] of the same binder?
**A.** -0.373

**Q.** And the “glycan array binding signal (z-score)” value [19]?
**A.** -0.308

**Q.** What about the “glycan array binding signal (z-score)” value [20] of the same binder?
**A.** -0.369

**Q.** And the “glycan array binding signal (z-score)” value [21]?
**A.** 0.113

**Q.** And the “glycan array binding signal (z-score)” value [22]?
**A.** -0.286

**Q.** And the “glycan array binding signal (z-score)” value [23]?
**A.** 1.01

**Q.** What about the “glycan array binding signal (z-score)” value [24] of the same binder?
**A.** 2.21

**Q.** What about the “glycan array binding signal (z-score)” value [25] of the same binder?
**A.** 0.037

**Q.** And the “glycan array binding signal (z-score)” value [26]?
**A.** 2.01

**Q.** And the “glycan array binding signal (z-score)” value [27]?
**A.** -0.007

**Q.** And the “glycan array binding signal (z-score)” value [28]?
**A.** 0.94

**Q.** What about the “glycan array binding signal (z-score)” value [29] of the same binder?
**A.** -0.031

**Q.** What about the “glycan array binding signal (z-score)” value [30] of the same binder?
**A.** -0.318

**Q.** And the “glycan array binding signal (z-score)” value [31]?
**A.** -0.153

**Q.** What about the “glycan array binding signal (z-score)” value [32] of the same binder?
**A.** 0.36

**Q.** What about the “glycan array binding signal (z-score)” value [33] of the same binder?
**A.** 0.217

**Q.** What about the “glycan array binding signal (z-score)” value [34] of the same binder?
**A.** -0.173

**Q.** What about the “glycan array binding signal (z-score)” value [35] of the same binder?
**A.** -0.288

**Q.** And the “glycan array binding signal (z-score)” value [36]?
**A.** 0.368

**Q.** What about the “glycan array binding signal (z-score)” value [37] of the same binder?
**A.** 0.06

**Q.** What about the “glycan array binding signal (z-score)” value [38] of the same binder?
**A.** -0.232
